Data: PMC4336329 (PLoS ONE, 2015)
About 2,200 (0.71%) of roughly 310,000 compounds showed an effect of 50% or more. Effects have a minus sign here. Some of the results follow.

target: human ether-à-go-go-related gene (hERG) potassium channel (human, UniProt Q12809); test: primary screen, population patch clamp on CHO cells stably expressing hERG
Sequence (Q12809 whole entry, looked up): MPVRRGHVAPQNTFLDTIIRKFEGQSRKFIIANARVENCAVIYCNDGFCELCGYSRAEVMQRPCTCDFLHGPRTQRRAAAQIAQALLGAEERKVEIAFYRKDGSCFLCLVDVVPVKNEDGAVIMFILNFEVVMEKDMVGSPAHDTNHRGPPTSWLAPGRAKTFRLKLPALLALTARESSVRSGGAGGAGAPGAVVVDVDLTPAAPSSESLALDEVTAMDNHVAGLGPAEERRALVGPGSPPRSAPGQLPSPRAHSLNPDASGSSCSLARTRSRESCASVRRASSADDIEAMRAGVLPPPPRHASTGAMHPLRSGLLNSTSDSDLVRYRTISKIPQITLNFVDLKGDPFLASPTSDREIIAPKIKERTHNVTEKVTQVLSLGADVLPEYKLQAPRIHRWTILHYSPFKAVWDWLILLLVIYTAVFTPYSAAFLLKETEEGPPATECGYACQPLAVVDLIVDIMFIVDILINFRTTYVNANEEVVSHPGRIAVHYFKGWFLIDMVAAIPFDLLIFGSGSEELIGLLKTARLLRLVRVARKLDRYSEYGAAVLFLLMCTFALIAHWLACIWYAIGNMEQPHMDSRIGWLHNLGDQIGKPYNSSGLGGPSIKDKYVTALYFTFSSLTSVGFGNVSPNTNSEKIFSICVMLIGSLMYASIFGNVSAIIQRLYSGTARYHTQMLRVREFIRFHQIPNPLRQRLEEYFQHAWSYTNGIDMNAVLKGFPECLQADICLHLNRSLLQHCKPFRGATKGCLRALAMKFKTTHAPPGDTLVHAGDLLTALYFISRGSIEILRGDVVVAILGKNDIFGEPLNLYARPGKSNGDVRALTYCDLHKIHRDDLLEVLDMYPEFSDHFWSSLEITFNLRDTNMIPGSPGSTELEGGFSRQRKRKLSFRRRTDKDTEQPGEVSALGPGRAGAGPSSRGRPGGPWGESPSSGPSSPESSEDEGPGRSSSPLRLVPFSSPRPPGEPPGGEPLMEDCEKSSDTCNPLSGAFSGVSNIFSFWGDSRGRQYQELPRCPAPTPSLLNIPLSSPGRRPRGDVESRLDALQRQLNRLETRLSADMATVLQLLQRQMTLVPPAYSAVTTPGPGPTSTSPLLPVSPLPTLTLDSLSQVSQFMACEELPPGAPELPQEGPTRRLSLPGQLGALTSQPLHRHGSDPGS

| Structure (SMILES) | hERG current change (%, negative = inhibition) at 1uM |
| --- | --- |
| COC(=O)c1cn(NC(=O)/C=C/c2cccc(OC)c2OC)c(=O)c2ccccc12 | 6.73% |
| Cc1nn(C)c(C(=O)Sc2cccc(Cl)c2)c1[N+](=O)[O-] | 15.7% |
| COc1ccc([N+](=O)[O-])cc1N(CC(O)CN1CCCCC1)S(=O)(=O)c1ccc(C)cc1 (stereo not shown) | -17.7% |
| CCCCNC(=O)C1CCC(CNS(=O)(=O)c2cccc3nsnc23)CC1 (stereo not shown) | 12.1% |
| CCCC(CCC)C(=O)O | 13.6% |
| CC(C(=O)Nc1cccnc1)n1cc([N+](=O)[O-])cn1 (stereo not shown) | 14.7% |
| O=C(CCN1CCOCC1)Nc1ccc2c(c1)CCC2 | 3.78% |
| CCOC(=O)N1CCN(C(=O)CCCn2c(=S)[nH]c3ccsc3c2=O)CC1 | 10.7% |
| O=C(COC(=O)C1CCCCC1)Nc1cc([N+](=O)[O-])ccc1F | 20.6% |
| O=C(NCCN1CCCCC1)Nc1cccc(Cl)c1Cl | 6.05% |
| Cc1ccc(N(C)S(=O)(=O)c2ccc(C)cc2)cc1 | 2.74% |
| COc1ccc(C2CC(=O)c3cnc(NC(=O)c4ccco4)nc3C2)cc1 (stereo not shown) | 11.5% |
| O=C(N/N=C/c1cccnc1)C12CC3CC(CC(C3)C1)C2 | 17.9% |
| O=C(c1cccc2ccccc12)N1CCCCC1 | 12.6% |
| CN(Cc1ccccc1Cl)C(=O)c1cnccc1C(F)(F)F | 9.94% |
| O=C(CSc1nnc(-c2ccc(Cl)cc2)n1Cc1ccco1)NCc1ccc2c(c1)OCO2 | -51.6% |
| O=c1c2c(-c3ccccc3)ccnc2[nH]n1-c1ccccc1 | 13.4% |
| CCC(=O)N1CC2(c3ccccc3)CN(C(=O)CC)CC(c3ccccc3)(C1)C2=O | 8.28% |
| CN(Cc1ccc(Cl)cc1)C(=O)COC(=O)c1ccc(-c2ccc(O)cc2)cc1 | 7.15% |
| CCOC(=O)N1CCN(C(=O)c2ccc3c(=O)n(Cc4ccccc4)c(=S)[nH]c3c2)CC1 | 17% |

| Structure (SMILES) | hERG current change (%, negative = inhibition) at 1uM |
| --- | --- |
| CC(C)CNC(=S)NC1CC2CCCC(C1)N2Cc1cccs1 (stereo not shown) | -4.59% |
| Cc1cc(=O)oc2c(C)c(OCC(=O)NCCc3ccc(S(N)(=O)=O)cc3)ccc12 | 2.27% |
| CCOc1ccc(-c2nnn(CC#N)n2)cc1OC | 2.16% |
| CCOC(=O)c1cc(C)sc1NC(=S)Nc1ccccc1 | 11.2% |
| Cc1ccc(NC(=O)C2COc3ccccc3O2)cc1C (stereo not shown) | 17.4% |
| COc1ccc(Br)c(C(=O)NNC(=O)c2ccc(NS(=O)(=O)c3cccs3)cc2)c1 | 10.7% |
| Cc1cc(CNC(=S)Nc2ccc(S(=O)(=O)Nc3ncccn3)cc2)nn1C | 10.2% |
| Cc1ccccc1CN1CCC(CNC(=O)Nc2ccc(F)cc2F)CC1 | -0.0521% |
| CS(=O)(=O)c1ccc2nnn(OCC(=O)Nc3ccc(Br)cc3Br)c2c1 | 4.14% |
| CCOc1ccc(CN(C)C(=O)c2ccc(NS(=O)(=O)c3ccc4[nH]c(=O)[nH]c4c3)cc2)cc1 | 23.5% |
| COc1cc(OC)cc(-c2nc(-c3ccccc3)no2)c1 | 8.16% |
| COc1cccc(CC(=O)N2CCN(c3ccccc3[N+](=O)[O-])CC2)c1 | 8.1% |
| Cc1ccc2nc(-c3cccc(N)c3)oc2c1 | 3.87% |
| COc1cc(C2CC(=O)Oc3c2c(=O)n(C)c2ccccc32)ccc1O (stereo not shown) | 10.3% |
| O=C(c1ccccc1)c1ccc(OC(=O)N2CCOCC2)cc1 | -2.42% |
| CCC1CCCCN1C(=O)COc1ccc(S(=O)(=O)N2CCOCC2)cc1Cl (stereo not shown) | -5.71% |
| CCn1c(CNc2ccc(Cl)cc2)nnc1SCc1ccccc1 | 2.39% |
| CCN(Cc1ccncc1)C(=O)c1ccc2c(c1)S(=O)(=O)c1ccccc1C2=O | -11.7% |
| CCCCNC(=S)Nc1ccc2cn[nH]c2c1 | -1.69% |
| COc1ccc(C2NC(=O)NC(O)(C(F)(F)F)C2C(=O)c2ccc(F)cc2)cc1 (stereo not shown) | 7.9% |

| Structure (SMILES) | hERG current change (%, negative = inhibition) at 1uM |
| --- | --- |
| COc1ccc(CC(=O)NCC2(N3CCCCC3)CCCCC2)cc1 | 11.2% |
| CC1CCN(S(=O)(=O)c2nnc(NC(=O)c3ccccc3Br)s2)CC1 | -3.65% |
| Cc1ccsc1C1NC(=O)c2ccccc2N1 (stereo not shown) | 3.74% |
| Cc1cccc(NC(=O)CNC(=O)COC(=O)c2ccc(C(C)(C)C)cc2)c1C | 0.857% |
| O=c1[nH][nH]cc1C=Nc1cc(Cl)ccc1O | -1.23% |
| CCCN1CCN(CCCNC(=O)CCN2C(=O)COc3ccccc32)CC1 | 14.9% |
| Cc1ccc(NC(=O)C2CCN(S(=O)(=O)c3cccc4cccnc34)CC2)nc1 | 4.21% |
| C=CCOc1ccc(CNc2nn[nH]n2)cc1 | 18.1% |
| Cc1ccc(Cc2nc(-c3ccccn3)no2)cc1 | 13.7% |
| CCc1ccc(C(=O)NNC(=O)C2CC(=O)N(c3ccc4c(c3)OCCO4)C2)cc1 (stereo not shown) | 3.77% |
| O=C1C2=C(SCCS2)C(=O)N1CCCO | -2.17% |
| CN(C)CCN(Cc1ccco1)C(=O)c1oc2ccccc2c1NC(=O)COc1ccccc1 | -79.3% |
| N#Cc1c(N)n[nH]c1CCCN | 6.66% |
| CCCn1c(SCC(=O)Nc2ccc3c(c2)OCCO3)nnc1-c1ccco1 | -8.32% |
| CSc1nc(C)cc(OCNC(=O)c2cccs2)n1 | 7.64% |
| O=C1c2cccnc2C(Nc2ccc(S(=O)(=O)N3CCCCCC3)cc2)N1Cc1ccccc1 (stereo not shown) | 10.1% |
| CN1C(=O)c2cccc3c(S(=O)(=O)N(C)C)ccc1c23 | 10.9% |
| NC(=O)c1cc(N2CC2)c([N+](=O)[O-])cc1[N+](=O)[O-] | 9.05% |
